Like-named read-outs stand apart in the source and are kept apart here. One block for each binder: values may come before it.
Experiments:
[1] = target: T1, TRAIL R2 expressed on the cell surface (human, UniProt O14763); experiment: cell-based or functional assay
[2] = target: T1, TRAIL R2 expressed on the cell surface
[3] = target: T1, TRAIL R2 expressed on the cell surface; remark: listed apart in the source
[4] = target: T1, TRAIL R2 expressed on the cell surface; experiment: cell-based or functional assay; remark: listed apart in the source

B1: A7(1E11) (Fc fusion)
chain: AMASGGGGSAIEVKDVTDTTALITWAKPWVDPPPLWGCELAYGIKDVPGDRTTIDLQQKHTAYSIGNLKPDTEYEVSLICFDPYGAKSNPAKETFTTGGGGSGGGGSGGGGSAIEVKDVTDTTALITWAKPWVDPPPLWGCELAYGIKDVPGDRTTIDLQQKHTAYSIGNLKPDTEYEVSLICFDPYGAKSNPAKETFTTGGGGSGGGGSGTGA[omitted - human IgG1 Fc]
EC50, killing of H2122 cells [1]: 20 pM

Maximum Inhibition %, H2122 cells [2]: 80%
B2: A9(1E11) (designed binder)
heavy: SQIEVKDVTDTTALITWAKPWVDPPPLWGCELAYGIKDVPGDRTTIDLQQKHTAYSIGNLKPDTEYEVSLICFDPYGAKSNPAKETFTTGGGTPTSSASTKGPSVFPLAPSSKSTSGGTAALGCLVKDYFPEPVTVSWNSGALTSGVHTFPAVLQSSGLYSLSSVVTVPSSSLGTQTYICNVNHKPSNTKVDKRV[omitted - human IgG1 Fc]
light: SQIEVKDVTDTTALITWAKPWVDPPPLWGCELAYGIKDVPGDRTTIDLQQKHTAYSIGNLKPDTEYEVSLICFDPYGAKSNPAKETFTTGGGTPTRTVAAPSVFIFPPSDEQLKSGTASVVCLLNNFYPREAKVQWKVDNALQSGNSQESVTEQDSKDSTYSLSSTLTLSKADYEKHKVYACEVTHQGLSSPVTKSFNRGEC
EC50, killing of H2122 cells [2]: 1980 pM
fold potency in inhibiting H2122 cell viability [3]: 150 fold

B3: A8(1E11) (Fc fusion)
chain: AMASGGGGSAIEVKDVTDTTALITWAKPWVDPPPLWGCELAYGIKDVPGDRTTIDLQQKHTAYSIGNLKPDTEYEVSLICFDPYGAKSNPAKETFTTGGGGSGGGGSGGGGSAIEVKDVTDTTALITWAKPWVDPPPLWGCELAYGIKDVPGDRTTIDLQQKHTAYSIGNLKPDTEYEVSLICFDPYGAKSNPAKETFTTGGGGSGGGGSGGGGSAIEVKDVTDTTALITWAKPWVDPPPLWGCELAYGIKDVPGDRTTIDLQQKHTAYSIGNLKPDTEYEVSLICFDPYGAKSNPAKETFTTGGGGSGGGGSGGGGSAIEVKDVTDTTALITWAKPWVDPPPLWGCELAYGIKDVPGDRTTIDLQQKHTAYSIGNLKPDTEYEVSLICFDPYGAKSNPAKETFTTGGGGSGGGGSGTGA[omitted - human IgG1 Fc]
EC50, killing of H2122 cells [4]: 0.2 pM

Source: US9212231B2, “TRAIL R2-specific multimeric scaffolds” (MEDIMMUNE, LLC, dated 2015)
